Experimental data from PubChem BioAssay AID493208 (National Center for Advancing Translational Sciences (NCATS), 2011).
Among all 44,000 compounds or so, about 340 (0.77%) were called active. Roughly 5% stayed inconclusive and do not appear here. Calls come from the whole dose curve; as a rule, active = well fitted inhibition curve with a large enough effect; inconclusive = small, poorly fitted or top-dose-only effect; inactive = flat fitted curve, though single readings scatter. The list shows a part of the results.

Assay: Acumen qHTS Assay for Inhibitors of the mTORC1 Signaling Pathway in MEF (Tsc2-/-, p53-/-) Cells: Sytravon;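 note: plate controls were DMSO for no effect and rapamycin for full effect; nearly all actives have a fitted effect of over 50% in size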
Conditions: phospho-rpS6 immunofluorescence/PI, 24 h; series mostly up to 38.3 µM; activity change, negative = inhibition: at the top concentration
In short: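 Readout is phospho-S6 Alexa 488 signal normalized to PI per well, reported as % active cells with thresholds set from rapamycin (7.5 nM) and DMSO controls. Cells: Tsc2-/-, p53-/- MEFs, 24 hrs compound at 37 C; PI cell number serves as viability.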

Structure (SMILES) | activity change, negative = inhibition
CCCOc1c(Cl)cc(C(=O)N(Cc2cccc(OC)c2)C2CCS(=O)(=O)C2)cc1Cl (stereo unspecified) | inactive: -1.55%
COc1ccc(NC(=O)Cn2cnc3c(oc4ccccc43)c2=O)cc1OC | inactive: 8.04%
CC(C)NC(=O)C1CCC(Cn2c(=O)c3sccc3n(CC(=O)NCc3ccccc3)c2=O)CC1 (stereo unspecified) | inactive: -9.75%
CCOc1ccc(NC(=O)c2cnc(N3CCCCC3)c3ccccc23)cc1 | inactive: 4.99%
CCOC(=O)c1c(-c2ccccc2)csc1NC(=O)c1cc(-c2ccc(F)cc2)on1 | inactive: -16.3%
O=C(NCc1ccc2c(c1)OCO2)c1ccc2c(c1)N(Cc1ccccc1)C(=O)c1ccccc1S2=O (stereo unspecified) | inactive: -14%
CN(c1ccccc1)S(=O)(=O)c1nnc(NC(=O)c2ccccc2)s1 | inactive: 3.64%
CC(C)n1cnc(S(=O)(=O)N2CCCC(C(=O)NCc3ccccc3Cl)C2)c1 (stereo unspecified) | inactive: 0%
COC(=O)Cn1c(=O)c2cccn2c2cccnc21 | inactive: -4.16%
CCOc1ccc(C(=O)c2c(N)c(-c3nc(-c4ccc5c(c4)OCO5)cs3)c3ccccn23)cc1 | inactive: -3.26%
Cc1ccsc1CN(C(=O)c1oc2cc(Br)ccc2c1C)C1CCS(=O)(=O)C1 (stereo unspecified) | inactive: -13.7%
Cc1cc(C(=O)Nc2ccc(C(C)C)cc2)c2c(C)nn(-c3ccccc3)c2n1 | inactive: -0.355%
COc1cccc(CNC(=O)CSc2c3c(nc4cc(Cl)ccc24)CCCC3)c1 | inactive: 3.18%
CN(C)CCCN(C(=O)c1ccc2c(c1)OCCO2)c1nc2ccccc2s1 | inactive: -21.5%
CCOc1ccccc1NC(=O)Cn1cc(C(=O)c2ccc(Cl)cc2)c(=O)c2ccc(C)nc21 | inactive: 2.62%
COc1ccc(Cn2c(=O)c3oc4ccccc4c3n(Cc3cccc(C)c3)c2=O)cc1 | inactive: 4.9%
COc1ccccc1CNc1ccc(-c2nc(-c3ccco3)no2)cc1[N+](=O)[O-] | inactive: -3.6%
Cc1cccc2c(=O)cc(CSc3ccccc3NC(=O)c3cccc(F)c3)[nH]c12 | inactive: -0.579%
CC(C)CCNC(=O)c1ccc2c(c1)N(Cc1cccc(Cl)c1)C(=O)c1ccccc1S2 | inactive: 5.16%
CCCC(=O)n1nc(-c2ccco2)nc1NCc1ccccc1Cl | inactive: -6.24%
O=C(Nc1nnc(S(=O)(=O)N2CCOCC2)s1)c1ccccc1Cl | inactive: -2.22%

Structure (SMILES) | activity change, negative = inhibition
Cc1cc2nn(-c3ccc(F)cc3)nc2cc1NC(=O)c1cccc2ccccc12 | inactive: -1.07%
COc1ccc(OC)c(CCNC(=O)c2cc3c(=O)oc4ccc(C)cc4c3s2)c1 | inactive: -14.7%
CC(=O)Nc1ccc(NC(=O)C2CCCN2S(=O)(=O)c2ccc3c(c2)CCCC(=O)N3)cc1 (stereo unspecified) | inactive: -2.75%
O=C(Nc1ccc2nc(SCc3ccccc3)sc2c1)c1ccccc1F | inactive: -22%
COc1ccc(N2CCN(C(=O)CN3C(=O)CSc4c3c(C)nn4-c3ccccc3)CC2)cc1 | inactive: -3.25%
O=C(Nc1ccc2oc(-c3cccnc3)nc2c1)c1ccc(-c2ccc(OC(F)(F)F)cc2)o1 | inactive: 6.16%
Cc1ccc(OCC(=O)Nc2ccc3c(c2)nc(CCNC(=O)c2ccco2)n3C)cc1 | inactive: -8.5%
COCCCNc1nc2cc(OC)c(OC)cc2c2nc(-c3ccccc3)nn12 | inactive: -1.42%
Cc1ccccc1N1CC(C(=O)Nc2ccc(Br)cc2)CC1=O (stereo unspecified) | inactive: -15.2%
COc1ccc(CNC(=O)CN2N=C(c3ccccc3)CCC2=O)c(OC)c1 | inactive: 4.24%
CCn1c(=O)c(=O)n(CC)c2cc(N3CCCCC3)c(NC(=O)c3ccc(Cl)cc3)cc21 | inactive: 4.36%
Cc1nnc(N2CCCC(C(=O)NCc3ccccc3F)C2)c2nn(-c3ccc(Cl)cc3)c(C)c12 (stereo unspecified) | inactive: -5.68%
COc1ccc(C(=O)NCc2nnc(SCC(=O)Nc3ccccc3)n2-c2ccccc2)cc1 | inactive: -16.2%
O=C(CSc1n[nH]c(-c2ccccc2)n1)NCCCc1ccccc1 | inactive: 0.72%
Cc1ccc(-n2nnc(-c3nsc(NC(=O)c4cccc(Cl)c4)n3)c2C)cc1C | inactive: 5.15%
COc1cc(Cl)c(C)cc1NC(=O)c1ccc2c(SCC(=O)O)c3c(nc2c1)CCCC3 | inactive: 6.93%
COc1ccc(-c2nc3cc(C(C)C)ccc3o2)cc1NC(=O)COc1ccc(C)cc1C | inactive: -15.3%
O=C(Cn1c(=O)c2ccccc2n(CC(=O)Nc2ccc(F)cc2F)c1=O)NCCc1ccccc1 | inactive: 0.703%
Cc1ccc(C)c(Nc2ncnc3onc(C)c23)c1 | inactive: 5.63%
COc1ccc(NC(=O)CCSc2nc(-c3ccco3)cc(C(F)(F)F)n2)cc1 | inactive: -3.71%
COc1ccc(NC(=O)CSc2ncccc2C(=O)O)cc1OC | inactive: 12.7%

Structure (SMILES) | activity change, negative = inhibition
CCN(C(=O)c1cc2c(=O)oc3ccc(C)cc3c2s1)c1cc(OC)ccc1OC | inactive: -3.51%
CCC1CCCCN1CCCNC(=O)c1ccc2c(c1)N(Cc1ccccc1)C(=O)c1ccccc1S2(=O)=O (stereo unspecified) | inactive: -12.6%
CCn1nc(C)c2c(-c3ccccc3)cc(=O)n(C(C)C(=O)NCc3cccc(OC)c3)c21 (stereo unspecified) | inactive: -2.89%
CCOc1cccc(CC(=O)N2CCc3c([nH]c4ccccc34)C2c2ccccc2)c1OCC (stereo unspecified) | inactive: 4.39%
CCN(CC)c1ccc(CN(C(=O)Cc2coc3ccc(C)cc23)C2CCS(=O)(=O)C2)cc1 (stereo unspecified) | inactive: -14.4%
CCc1ccc(OCCCn2c(-c3ccc(Cl)cc3)nc3ccccc3c2=O)cc1 | inactive: 6.25%
Cc1ccc(-c2nc3scc(CCNS(=O)(=O)c4ccc(F)c(C)c4)n3n2)cc1 | inactive: 0.465%
Cc1ccc(Cl)cc1NC(=O)CSc1ccc(C(=O)O)cn1 | inactive: 2.06%
CCN(CC)c1ccc(NC(=O)c2cc(C)nc3c2c(C)nn3-c2cccc(F)c2)c(C)c1 | inactive: 3.33%
c1ccc(-c2nnc(CN3CCN(c4ccccn4)CC3)o2)cc1 | inactive: 5.69%
O=C(NCCSCc1cccc(Cl)c1)C1CCN(S(=O)(=O)Cc2ccccc2)CC1 | inactive: -1.14%
CCC1CN(C(=O)N2CCC(C(=O)NCCc3ccccc3C)CC2)c2ccccc2O1 (stereo unspecified) | inactive: 0%
Cc1ccc(OCC(=O)OCc2cc(=O)n3nc(C4CCCCC4)sc3n2)cc1C | inactive: -6.7%
O=C1CC(c2ccccc2)Sc2nc(-c3ccc(F)cc3)nn21 (stereo unspecified) | inactive: -14%
O=C(c1[nH]c2ccccc2c1Sc1ccc(Cl)cc1)N1CCCCC1 | inactive: 9.02%
COc1ccc(C(=O)Nc2cc(C(C)C)c(O)c(S(=O)(=O)c3ccc(Cl)cc3)c2C)cc1 | inactive: -1.46%
CCN(Cc1ccccc1)Cc1c(O)ccc2c(=O)c(-c3ccccc3)c(C(F)(F)F)oc12 | inactive: -19.1%
CCOc1ccccc1CNCc1c(C(=O)O)c(C)n(Cc2ccc(Cl)cc2)c1C | inactive: -1.62%
CCc1ccccc1NC(=O)Cn1c(=O)oc2ccccc21 | inactive: -9.63%
